Experimental data: publication PMC4336329 (PLoS ONE, 2015)
About 2,200 (0.71%) of roughly 310,000 compounds showed an effect of 50% or more. Effects have a minus sign here. The list shows a part of the results.

Target: human ether-à-go-go-related gene (hERG) potassium channel (human, UniProt Q12809)
Test: primary screen, population patch clamp on CHO cells stably expressing hERG

Sequence of human ether-à-go-go-related gene (hERG) potassium channel (Q12809 whole entry, looked up): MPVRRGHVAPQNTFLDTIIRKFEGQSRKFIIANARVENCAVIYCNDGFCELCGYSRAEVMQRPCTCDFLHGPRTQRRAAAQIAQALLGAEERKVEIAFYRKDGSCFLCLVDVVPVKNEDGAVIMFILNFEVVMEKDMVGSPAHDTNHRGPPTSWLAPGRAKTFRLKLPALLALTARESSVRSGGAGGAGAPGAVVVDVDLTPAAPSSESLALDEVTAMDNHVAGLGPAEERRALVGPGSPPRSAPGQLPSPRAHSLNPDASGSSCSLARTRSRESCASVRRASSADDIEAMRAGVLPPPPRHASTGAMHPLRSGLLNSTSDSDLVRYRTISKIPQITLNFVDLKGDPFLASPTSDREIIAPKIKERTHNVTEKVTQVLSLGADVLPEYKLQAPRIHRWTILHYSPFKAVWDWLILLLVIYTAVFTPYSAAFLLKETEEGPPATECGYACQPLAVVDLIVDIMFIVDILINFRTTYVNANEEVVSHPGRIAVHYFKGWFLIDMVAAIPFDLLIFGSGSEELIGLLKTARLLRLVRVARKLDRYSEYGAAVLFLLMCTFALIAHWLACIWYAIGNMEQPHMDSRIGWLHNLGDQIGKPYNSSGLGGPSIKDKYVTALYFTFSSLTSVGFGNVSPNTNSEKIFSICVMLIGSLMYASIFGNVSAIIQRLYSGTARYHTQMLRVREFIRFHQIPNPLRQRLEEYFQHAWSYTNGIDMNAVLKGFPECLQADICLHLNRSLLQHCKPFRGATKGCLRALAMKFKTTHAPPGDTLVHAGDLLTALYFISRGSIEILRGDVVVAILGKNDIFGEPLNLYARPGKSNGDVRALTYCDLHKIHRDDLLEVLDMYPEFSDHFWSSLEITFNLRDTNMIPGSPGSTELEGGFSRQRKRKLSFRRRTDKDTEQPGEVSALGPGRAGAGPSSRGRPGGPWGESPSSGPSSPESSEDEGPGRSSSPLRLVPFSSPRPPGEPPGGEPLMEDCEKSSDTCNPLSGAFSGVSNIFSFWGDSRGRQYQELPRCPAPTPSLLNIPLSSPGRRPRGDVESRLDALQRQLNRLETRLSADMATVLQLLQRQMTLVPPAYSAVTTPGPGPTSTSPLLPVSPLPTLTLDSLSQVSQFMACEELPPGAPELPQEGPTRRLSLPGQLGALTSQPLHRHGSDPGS

Row | SMILES | hERG current change (%, negative = inhibition) at 1uM [%]
1 | N#C/C(=C(/O)CCCl)c1ccccn1 | 21.1
2 | CC(=O)N1CCc2cc(S(=O)(=O)CCC(=O)Nc3ccccc3F)ccc21 | 16.1
3 | CN1C(=O)N(C)C(=O)C2(Cc3cc([N+](=O)[O-])ccc3N(C)C2)C1=O | 10.7
4 | CCN(CC(=O)Nc1ccc(NC(C)=O)cc1)C(=O)/C=C/c1cn(Cc2ccccc2)nc1-c1cccnc1 | -10.3
5 | COc1ccc(CNC(=O)CN(Cc2cccs2)C(=O)CCC(=O)Nc2ccccn2)cc1 | -15.9
6 | CC(C)CC1(C)NC(=O)N(CC(=O)Nc2cccc(S(=O)(=O)N(C)c3ccccc3)c2)C1=O (centres unmarked) | 5.97
7 | COC(=O)Nc1ccc(SCC(=O)c2ccccc2)cc1 | 9.03
8 | CS(=O)(=O)N1CCC(C(=O)Nc2ccc(C(N)=O)cc2)CC1 | 13.9
9 | O=C(COC(=O)c1ccc(N2CCOCC2)c([N+](=O)[O-])c1)Nc1ccc2c(c1)OCO2 | 7.45
10 | COc1ccc(C(=O)Nc2nnc(S(=O)(=O)N3CCC(C)CC3)s2)cc1OC | 5.73
11 | Cc1ccc(C(=O)NCc2ccncc2)cc1S(=O)(=O)N1CCCCC1 | 9.32
12 | COc1cc(C)c(S(=O)(=O)Nc2ccccc2F)cc1C | 4.78
13 | O=C(N=C1SC2CS(=O)(=O)CC2N1c1cccc(Cl)c1Cl)C1CCCO1 (centres unmarked) | 11.5
14 | COc1cc(OC)c(OC)cc1/C=N/Nc1ccc(Cl)nn1 | 12.7
15 | O=C1C=CC(=O)N1N(c1ccccc1)c1ccccc1 | 2.18
16 | O=C1CCc2ccc(NS(=O)(=O)c3ccc(F)cc3)cc2N1 | 9.6
17 | COCCN(C(=S)Nc1cc(C)ccc1C)C(C)c1cccnc1 (centres unmarked) | 6.21
18 | OCC1OC(n2cnc3c(NC4CCCC4)ncnc32)C(O)C1O (centres unmarked) | 4.43
19 | CC1=NN(C(=O)Cn2nc([N+](=O)[O-])c(Br)c2C)C(O)(C(F)(F)F)C1 (centres unmarked) | 4.9
20 | CCOC(=O)C(O)(CC(=O)c1ccc(OC)cc1)C(F)(F)F (centres unmarked) | -5.47
21 | Cc1cccc(C(=O)O/N=C(\c2ccccc2)c2cccnc2)c1 | 8.7
22 | COCCNC(=O)C(=O)NCC(c1ccc2c(c1)OCO2)N1CCN(c2ccc(F)cc2)CC1 (centres unmarked) | -5.97
23 | CC(=O)Nc1ccc(N2C(=O)CC(Sc3nccc(C)n3)C2=O)cc1 (centres unmarked) | 9.58

Row | SMILES | hERG current change (%, negative = inhibition) at 1uM [%]
24 | NC(=O)C1(N2CCCCC2)CCN(Cc2ccccc2)CC1 | 6.94
25 | NS(=O)(=O)c1ccc(NC(=S)NCc2ccccc2)cc1 | 15.3
26 | Cc1cc(C)cc(C(=O)Nc2cccnc2)c1 | 11.8
27 | COc1ccc(S(=O)(=O)N2CCOCC2)c2ccccc12 | 7.15
28 | CC(C)C(NC(=O)C1CCC(C(C)(C)C)CC1)C(=O)NCCc1ccc(S(N)(=O)=O)cc1 (centres unmarked) | 27.2
29 | COc1ccc(NC(=O)Cn2cc(C(=O)C3CC3)c3ccccc32)cc1 | 16
30 | COc1cccc(C2CC(=O)Nc3cc(OC)c(OC)cc32)c1 (centres unmarked) | 3.46
31 | CC1C2CC(C(CN(C)C)/C2=N/O)C1(C)C (centres unmarked) | -4.21
32 | Cc1ccc(/C(N)=N/OC(=O)N2CCOCC2)cc1 | 6.64
33 | O=C(/C=C/c1ccccc1)Nc1ccc2c(c1)C(=O)NC2=O | 1.61
34 | Cc1ccc(-c2c[n+](CC(=O)Nc3nc(-c4ccccc4)cs3)c3n2CCC3)cc1.[Cl-] | 0.194
35 | COC(=O)c1ccccc1NC(=O)CSc1nnnn1C1CCCCC1 | 2.4
36 | COc1ccc(-n2c(C)csc2=S)cc1 | 12.3
37 | CC(=O)COc1cc2c(-c3cc4ccccc4o3)cc(=O)oc2cc1C | 8.42
38 | Cc1ccn2c(=O)c(C(=O)O)cnc2c1 | 14.4
39 | O=c1[nH]ncc(NCc2ccc(Cl)cc2)c1Cl | 6.71
40 | CCOc1ccc(NC(=O)COc2ccc(C(=O)NCCc3ccccc3)cc2)cc1 | 3.64
41 | Cn1nccc1NS(=O)(=O)c1ccc(NC(=O)C(F)(F)F)cc1 | 12.3
42 | COc1ccc(S(=O)(=O)N[C@@H](CC(C)C)C(=O)O)cc1 | 14.5
43 | CCOCCCn1cnc2c3cc(F)ccc3n(C)c2c1=O | -7.93
44 | CS(=O)(=O)N1CCN(C(=O)c2ccc(Br)s2)CC1 | -11
45 | CCCn1nc(C(=O)NCc2ccc3c(c2)OCO3)c2ccccc2c1=O | 11.8
46 | O=C(CSc1ccc(-c2ccccn2)nn1)Nc1ccccc1 | 14.7

Row | SMILES | hERG current change (%, negative = inhibition) at 1uM [%]
47 | CCN(CC)CCn1c2c(c(SCC(=O)Nc3ccc4c(c3)OCCO4)nc1=O)CCCC2 | -3.81
48 | CC(=O)c1cccc(NC(=O)c2ccc(-c3ccccc3[N+](=O)[O-])o2)c1 | 4.61
49 | O=C(O)c1ccc2c(c1)OCCCO2 | 10.6
50 | COCCOc1ccc(C(F)(F)F)cc1NC(=O)COC(=O)c1cc([N+](=O)[O-])ccc1N1CCOCC1 | 4.19
51 | COc1cccc(-c2nc3c(c(=O)[nH]c(=O)n3Cc3ccccc3)n2CCO)c1OC(F)F | 12.8
52 | O=c1[nH]c(=O)n(Cc2ccccc2)c(O)c1/C=N/NCCO | 11.4
53 | CC(C)C1Nc2ccc(C(=O)N3CCN(c4ccccn4)CC3)cc2NC1=O (centres unmarked) | 11.4
54 | COc1ccc([C@@H]2[C@@H]3C(=O)N(C(C)(C)C)C(=O)[C@@H]3[C@]3(CC(C)C)C(=O)N(c4ccc(C(F)(F)F)cc4)C(=O)N23)cc1 | 11.8
55 | O=C(Cn1cc([N+](=O)[O-])cn1)Nc1nc2ccccc2s1 | -41
56 | CCc1ccc(N2CC(C(=O)N/N=C/c3ccccc3OC)CC2=O)cc1 (centres unmarked) | 13
57 | CCC(=O)N(Cc1cc2ccccc2[nH]c1=O)C(C)C | 11.7
58 | COC(=O)c1cc2nc(-c3ccccc3)cc(C(F)(F)F)n2n1 | 22.2
59 | O=S(=O)(c1ccc(N2CCC(c3ccc(Cl)cc3)=N2)cc1)N(CCO)CCO | -12.7
60 | COCCn1c(SCC(=O)Nc2ccc(N3CCOCC3)cc2)nc2ccccc21 | 6.27
61 | C/C(NCC(C)(C)CN(C)C)=C(/C#N)C(=O)NCc1ccccc1 | 0.126
62 | O=C(O)c1ccc(S(=O)(=O)c2ccc3c(c2)C(=O)N(NC(=O)c2cccnc2)C3=O)cc1 | 1.42
63 | CC[N+]1(CC)CC2=Cc3c(ccc4ccccc34)C(C)C2C1.[Br-] (centres unmarked) | 9.72
64 | CC(=O)c1cccc(NC(=S)NC(=O)C(C)C)c1 | 12.3
65 | COC(=O)CC1C(=O)NCCN1C(=O)CSc1nc2ccccc2o1 (centres unmarked) | 11.4
66 | COc1ccc(S(=O)(=O)N(C)CC(=O)O)c2ccccc12 | 12.3
67 | Clc1ccccc1-c1cc(COc2ccc3ccccc3c2)no1 | 2.49
68 | NC(=O)c1nn(-c2ccccc2)nc1NC(=O)CN1CCCCC1 | 8.45
69 | COc1cc(CNn2c(C)n[nH]c2=S)cc(Br)c1OCc1ccc(F)cc1 | 10.3

Row | SMILES | hERG current change (%, negative = inhibition) at 1uM [%]
70 | CC(C)(C)NC(=O)CSc1nnc(C2CC2)n1Cc1ccccc1 | 10.2
71 | O=c1oc2ccccc2c2c1ncn2-c1ccccc1 | -0.898
72 | C=CCOC(=O)C1=C(C)NC(SCC(=O)N(CC)CC)=C(C#N)C1c1ccccc1 (centres unmarked) | -5.43
73 | Cc1cccc(NC(=O)/C(C#N)=C\c2cc(C)n(-c3ccc(C(=O)O)cc3)c2C)c1 | 13.1
74 | Cc1cc(C)cc(NC(=O)Nc2ccc(NC(=O)c3ccccc3O)cc2)c1 | 9.18
75 | O=C(COC(=O)c1nc(Cl)ccc1Cl)c1ccc[nH]1 | 12.3
76 | CCOc1ccccc1NC(=S)NC1CC2CCC1C2 (centres unmarked) | 10.7
77 | O=C(O)Cc1ccc2c(c1)N(S(=O)(=O)c1cccc(C(F)(F)F)c1)CC(C(=O)O)O2 (centres unmarked) | 14.5
78 | Br.Cn1c(=N)n(CC(=O)c2ccc(Br)s2)c2ccccc21 | 1.35
79 | O=S(=O)(Nc1ccc(Cl)cc1)c1ccc2c(c1)CCO2 | 7.39
80 | Cc1ccc(C)c(-n2cc(-c3ccc(Cl)cc3)nc2SCC(=O)NC2CCS(=O)(=O)C2)c1 (centres unmarked) | 10.3
81 | CC1CCN(c2cc(N3CCOCC3)c(F)cc2[N+](=O)[O-])CC1 | 12
82 | COc1cccc(NC(=O)CN(C)C(=O)c2ccc(OCc3ccccc3)c(OC)c2)c1 | 6.57
83 | Nc1nc2nc(-c3ccccc3)cc(C(F)(F)F)c2s1 | 8.84
84 | N#C/C(C(=O)N1CCCC1)=C1/N=C(N)c2ccccc21 | 17.8
85 | O=C(CSc1ncnc2c1oc1ccccc12)N1CCCc2ccccc21 | -1.75
86 | C=CCNC(=O)c1cc(Cl)ccc1Cl | 9.16
87 | CCOc1ccc(S(=O)(=O)N2CCC(C(=O)NCc3cccnc3)CC2)cc1 | -3.84
88 | CCCCCCn1c(SCCN2CCOCC2)nc2c1c(=O)[nH]c(=O)n2C | -64.1
89 | COC(=O)NNC(=O)C(C)Oc1ccc(Cl)cc1Cl (centres unmarked) | -15.3
